# The list shows a part of the results.
# Tested on: T1, C. trachomatis L2/434/Bu expressing GFP (CTL2-GFP)
# T1 construct: L2/434/Bu GFP intracellular growth in HeLa cells
# Parameters: species or system HeLa; C. trachomatis total inclusion area by high-content imaging, normalised to DMSO
# Details: total inclusion area; 28.5 h, 10 µM; inhibitor
# Summary of the method: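 High-content imaging followed the bulk GFP/resorufin measurement: fixed, Hoechst-stained cells were scored for GFP inclusions and host nuclei per well. Total inclusion area and count served as growth proxies, nuclei number as the viability proxy. MIC calculation matched the bulk assay.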
row,SMILES,% of control remaining
1,Cc1cccc(C(=O)Nc2cc(NC(=O)c3cccc(C)c3)cc(C(=O)O)c2)c1 [CBK269649],91.6143
2,CCOC(=O)CN1CCC(Oc2nccnc2OCC2COc3ccccc3O2)CC1 (stereo not drawn) [CBK082989T],105.489
3,COCCC(=O)Nc1cnc(-c2ccc(F)c(Cl)c2)c(-c2cccnc2)n1 [CBK036938],131.874
4,CC(NC(=O)N(Cc1ccc(-c2ccccc2)cc1)CC(C)(C)CN)c1cccc2ccccc12 (stereo not drawn) [CBK002426C],1.447
5,Fc1cc(Br)c(CNCc2cocn2)c(N2CCCCC2)c1F [CBK304792],68.2368
6,CN1CCN(Cc2c(-c3ccc(F)cc3)[nH]c3ncccc23)CC1 [CBK285335],91.6997
7,CN1CCN(C(=O)CNS(=O)(=O)c2cc(Br)c(Cl)s2)CC1 [CBK034482],70.7246
8,N#Cc1cccc(Nc2cncc(-c3cccs3)n2)c1 [CBK066030],114.304
9,COc1ccc(C(=O)N2C[C@H]3Cc4c(n[nH]c4C(F)F)[C@H]3C2)s1 [CBK283425],106.45
10,CN1CCCc2cc(CN3CCC4(CCCNC4=O)CC3)ccc21 [CBK284876],95.4215
11,O=C1NC(=O)C(CC(=O)N2CCC3(CCN(Cc4ccccc4)C3)C2)N1 (stereo not drawn) [CBK136850],72.4296
12,CCc1nn(CC(=O)N2CCCC2)c(=O)c2cc3oc(C)cc3n12 [CBK283584],111.411
13,CCOc1ccc(-n2c(SCC(=O)Nc3cc(C(=O)O)ccc3Cl)nc3ccccc3c2=O)cc1 [CBK297512],79.298
14,COCc1cccc(-c2nccnc2OC)c1 [CBK106956],126.979
15,CC(=O)Nc1cccc(-n2nnnc2SCC(=O)N2CCNC2=O)c1 [CBK305043],84.3299
16,Cc1cc(C(F)(F)F)nc(SCC(=O)N2c3ccccc3Sc3ccccc32)n1 [CBK268078],67.7211
17,NS(=O)(=O)c1ccc(CCNC=C2C(=O)c3ccccc3C2=O)cc1 [CBK262997],106.572
18,Cc1csc2c(C3CCN(C(=O)C4CC4)CC3)nc(C)n12 [CBK285241],94.2144
19,CCCC/C=C/c1nccnc1N[C@@H](C)c1ccccc1 [CBK037138],107.087
20,Cc1ccc2oc([C@H]3CCN(S(C)(=O)=O)C3)nc2c1 [CBK289371],95.2976

row,SMILES,% of control remaining
1,CCc1c(C)sc(NC(=O)c2ccc(Br)o2)c1C#N [CBK021662],76.9766
2,N#Cc1cnccc1N1CC2COCCC2(C(=O)N2CCCC2)C1 (stereo not drawn) [CBK304731],51.5213
3,O=C1NC2(CCN(C(=O)c3ccccc3F)CC2)Oc2ccccc21 [CBK283997],78.1362
4,CCOc1ccc(S(=O)(=O)NC(C)C(=O)O)cc1C (stereo not drawn) [CBK270178],95.1522
5,FC(F)(F)Oc1ccc(-c2c[nH]c([C@@H]3COCCN3C3CCNCC3)n2)cc1 [CBK289312],85.8023
6,CCn1c(=O)n(CC(=O)N2CCCCC2C)c2cccnc21 (stereo not drawn) [CBK283896],74.5081
7,COc1ccc(S(=O)(=O)N2CCN(CCN3C(=O)c4cccc5cccc(c45)C3=O)CC2)cc1[N+](=O)[O-] [CBK263301],97.2926
8,COc1ccc2cc3c(nc2c1)Sc1nncn1N=C3 [CBK021248],96.8415
9,Cc1cc(=O)n(CC(=O)NC(Cc2ccncc2)[C@H]2C[C@H](O)C2)nc1C (stereo partly drawn) [CBK306641],64.9948
10,O=C(c1cc(F)c(F)cc1F)N1CCC2(CCN(CCN3CCOCC3)C2)C1 (stereo not drawn) [CBK132145C],114.557
11,Cc1cnccc1-c1c[nH]nc1C1CCCN1C(=O)c1ccccc1 (stereo not drawn) [CBK285499],70.8172
12,C(=N\c1ccc(Cc2ccc(/N=C/c3ccc[nH]3)cc2)cc1)/c1ccc[nH]1 [CBK261282],86.8797
13,Cc1c[nH]c(CN(C)C(=O)c2cccc(NC(=O)C3CCCC3)c2)n1 [CBK307282],47.1507
14,O=C(CC1S\C(=N/N=C/C=C/c2ccccc2)N=C1O)Nc1ccc(C(=O)O)cc1 (stereo not drawn) [CBK263711],107.855
15,Cc1occc1-c1nnc(SCC(=O)c2ccc3c(c2)OCCO3)o1 [CBK268773],100.128
16,Cc1ccc(S(=O)(=O)N2CCOCC2)cc1C(=O)O [CBK262256],91.181
17,Cc1noc(-c2cn(C)nc2C2CCCCN2C(=O)C2CC2)c1C (stereo not drawn) [CBK283410],99.7543
18,CN(C)S(=O)(=O)N(CC(=O)Nc1ccc2c(c1)OCO2)c1ccccc1 [CBK268481],74.7103
19,Cc1ccc(C(=O)O)cc1S(=O)(=O)NCCCO [CBK267171],77.0072

# Reference: publication PMC12040169 (PLOS Biology, 2025)
